Laboratory results published in the supplement of paper PMC12217912.
This is one part of the list. Sequences were assembled here from the parent chain. Values near 0.05 are background.

B1: TEV protease; numbered along this chain (parent)
chain: MGESLFKGPRDYNPISSSICHLTNESDGHTTSLYGIGFGPFIITNKHLFRRNNGTLVVQSLHGVFKVKDTTTLQQHLVDGRDMIIIRMPKDFPPFPQKLKFREPQREERICLVTTNFQTKSMSSMVSDTSCTFPSGDGIFWKHWIQTKDGQCGSPLVSTRDGFIVGIHSASNFTNTNNYFTSVPKNFMELLTNQEAQQWVSGWRLNADSVLWGGHKVFMVKPEEPFQPVKEATQL

Variants of: B1
Test: raw area under fraction-flipped curve 0-4 h after induction (AUC4h, not background-subtracted), DNA-recorder readout of cleavage of the substrate (dimensionless); higher = more cleavage of the substrate by the protease variant
Settings: temperature: 34 °C; time window: 0-4 h after rhamnose induction
Protocol: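 In vivo DNA recorder in E. coli TOP10(DE3) ΔrhaA at 34 °C. Each TEVp single-site mutant (parent TEVp 0) is paired with a single-site variant of the 7-mer TEVs (canonical ENLYFQ|S). The substrate sits between flexible linkers in a Bxb1-sfGFP-TEVs-SsrA fusion, so cleavage stabilises Bxb1 and speeds flipping of a recombination array, read by NGS. The value is the raw area under the fraction-flipped curve over 0-4 h after rhamnose induction (AUC4h), with ≥20 reads per time point. It is not background-subtracted; inactive controls average about 0.047.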
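Also: Bxb1 expression induced with 0.2% (w/v) L-rhamnose at OD600 near 0.5, cultures sampled hourly, flipped fraction per protease–substrate barcode pair counted by paired-end Illumina sequencing.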

Variant	area with substrate ENLYFQC	area with substrate ENLYFQG	area with substrate ENLYFQI	area with substrate ENLYFQK	area with substrate ENLYFQL	area with substrate ENLYFQM	area with substrate ENLYFQN	area with substrate ENLYFQP	area with substrate ENLYFQS	area with substrate ENLYFQW	area with substrate ENLYFQH	area with substrate ENLYFQR	area with substrate ENLYFQT	area with substrate ENLYFQV	area with substrate ENLYFQY	area with substrate ENLYFQD	area with substrate ENLYFQF	area with substrate ENLYFQE	area with substrate ENLYFQQ
P184H	0.0969	0.0516	0.0555	0.0446	0.0545	0.063	0.0532	0.0491	0.0726	0.0785									
P184W	0.0719	0.0266	0.0469	0.0482	0.0569	0.0639	0.0589		0.0624	0.0649	0.0612	0.0491	0.0355	0.0561	0.0687				
G54I	0.0728		0.0549	0.0524		0.0664	0.0699		0.0688	0.0585		0.054	0.0544		0.0587	0.0701	0.0573		
D208V	0.0537			0.0748	0.0612		0.067		0.0678	0.0513	0.0675	0.0679		0.0515	0.0484				
D208Q	0.0795	0.0722	0.0594	0.0636	0.058	0.073	0.0755	0.0405	0.0784			0.0706			0.0629			0.0711	
D208K	0.0831	0.0738	0.0795						0.0819					0.044					
D208S	0.0898	0.101	0.0586	0.0714			0.0673	0.0483	0.0984				0.0591	0.0881					
D208E	0.0891					0.0665			0.101				0.0774			0.0463	0.074		0.059
L48Q	0.0581	0.0735	0.0471	0.0536	0.0612	0.0562	0.0551		0.0622		0.0666	0.0627	0.0528	0.0575	0.0596		0.0727	0.0724	
V200I	0.148	0.148			0.0424		0.085	0.0709	0.105				0.113						
M88G	0.0798	0.157	0.0419	0.0498	0.0418		0.0788	0.0507	0.0706	0.0448		0.0434	0.048	0.0465	0.0515				0.06
D128W	0.229	0.202	0.0593	0.0707	0.056	0.169	0.111		0.202	0.0822			0.0408				0.119		
D128Y	0.174	0.187		0.0572		0.128			0.14	0.0567	0.0771	0.071			0.119	0.0819		0.0646	0.102
D128I	0.121		0.0664		0.0727	0.0919	0.0982	0.0596	0.127	0.0775		0.0566	0.0622	0.0361	0.0785	0.0787			
D128K	0.14				0.0511		0.0813		0.0968	0.0705		0.0538	0.0553				0.0853		0.0532
D128C	0.153		0.0344	0.0808	0.0518	0.0872	0.084		0.127				0.0612		0.0751		0.101		
T176S	0.0766	0.0797		0.0658	0.0594	0.0984	0.0749	0.0476	0.0849	0.0667			0.0576	0.0507	0.0714	0.0687			
T176M	0.0825			0.0515	0.0593	0.072	0.063		0.0736	0.0468	0.0805	0.0707	0.0742	0.0557		0.0669			
G162C	0.0972	0.0978		0.0535	0.0618	0.0777	0.0698	0.0663	0.095	0.0536	0.0867	0.0631	0.0702	0.0629	0.0734	0.0705	0.0687		0.0658
K120G	0.113		0.0507	0.0462	0.0614	0.132	0.0444	0.0489	0.0973	0.067		0.0616	0.0606			0.0682	0.0763		
H168Y	0.0668		0.0552	0.0437	0.053	0.0559	0.0609		0.0579	0.051	0.0638	0.0533	0.0657	0.0553		0.0678		0.0632	
H168M	0.0618		0.0392		0.0685	0.0633	0.0574		0.0622	0.0559		0.0573	0.067		0.0667				
H168K	0.0532		0.0546	0.0573		0.0546	0.041		0.0575	0.0438		0.0424	0.0526	0.0647			0.0719		
E224A	0.0945	0.0889	0.064	0.0649	0.0527	0.0764	0.0831		0.092	0.0564	0.0619	0.057	0.045	0.0604	0.0687	0.0689	0.0626		0.0643
E224Y	0.0972		0.0374	0.0659	0.0461		0.069	0.0234	0.0904	0.0601	0.0666		0.0662	0.054		0.0795	0.0904		
E224H	0.0983	0.0561	0.0552	0.0644	0.0654	0.0904	0.0721	0.0484	0.0974	0.0679		0.0448	0.0697		0.0906			0.0496	0.0373
P96S	0.135	0.105	0.0741	0.0638		0.0931			0.101				0.0639	0.0647	0.0542				
R160Y	0.119	0.0859		0.0638	0.0797	0.0878		0.0486	0.105	0.0611	0.101	0.0707	0.0657		0.089		0.0882	0.0761	
F117N	0.107		0.0666	0.0567		0.0951	0.0984	0.0648	0.102	0.0482		0.0736	0.0808	0.0657	0.0791		0.0664		0.0754
